Assay results reported in PubChem BioAssay AID588855 (National Center for Advancing Translational Sciences (NCATS), 2011).
About 5,000 (1.2%) of roughly 410,000 compounds were called active. This list was built around the results that the source calls inconclusive (neither active nor inactive); the mix of calls is not that of the screen. Calls come from the whole dose curve; as a rule, active = well fitted inhibition curve with a large enough effect; inconclusive = small, poorly fitted or top-dose-only effect; inactive = no such curve, though single readings can be large or run the other way. A potency beside an inconclusive call is a rough fit, not a confirmed value.

Test: qHTS for Inhibitors of TGF-b; note: nearly all actives have a fitted effect of over 65% in size
Settings: HepG2 CAGA-GFP TGF-b/SMAD3 reporter, GFP fluorescence, 18 h, TGF-beta stimulated, 500 pg/mL final; series mostly up to 46.1 µM; activity, negative = inhibition: at the top concentration
Summary of the method: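 Read-out: total well GFP (ex488/em500-530) summed from mean per-cell fluorescence. Cells: HEPG2 CAGA-GFP, 1% FBS DMEM, 18 h at 37 degrees C with 500 pg/mL final TGF-beta. Unstimulated wells served as the full-inhibition control; stimulated DMSO wells = 0%.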
% is set by controls: 0 for no effect and ±100 for the full control effect; potency is the fitted concentration of half-maximal effect; tags give direction and shape of the fitted curve.

| SMILES | activity, negative = inhibition | Potency |
| --- | --- | --- |
| COc1cc(C2C3=C(CCCC3=O)Nc3ccc4ncccc4c32)ccc1O (stereo unspecified) | inactive: -15.2% |  |
| C[C@H](CO)N1C[C@H](C)[C@@H](CN(C)Cc2cncnc2)Oc2cc(Br)ccc2S1(=O)=O |  | inconclusive: 35.5 µM [inhibitor, single point] |
| C=C[C@H](CC(C)C)N(Cc1ccccc1)S(=O)(=O)N(Cc1ccc(OC)cc1)[C@H](C=C)CC(C)C | inactive: -27.3% |  |
| N#CCCN1CCN(CCC#N)C1=S |  | inconclusive: 5.62 µM [inhibitor, single point] |
| CN(CC(=O)NCc1ccc(F)cc1)CC(=O)Nc1ccc(Cl)c(C(F)(F)F)c1 |  | inconclusive: 35.5 µM [inhibitor, single point] |
| CCN(CC(=O)NCc1ccc(Cl)cc1)C(=O)/C=C/c1ccc(Cl)c([N+](=O)[O-])c1 |  | inconclusive: 4.47 µM [inhibitor, partial curve] |
| CC1=C(c2ccc(C(C)C)cc2)S(=O)(=O)N=C1N1CCC(C(=O)NCc2ccccc2)CC1 |  | inconclusive: 1.58 µM [inhibitor, partial curve] |
| COC(=O)c1cc(-c2ccc(C)o2)nc2ccccc12 |  | inconclusive: 6.31 µM [inhibitor, single point] |
| COc1cccc(CNC(=O)CSc2ccc(-c3cccs3)nn2)c1 |  | inconclusive: 0.251 µM [inhibitor, full curve, poor fit] |
| CCC(C)Oc1cc(-c2ccnc(Nc3cccc(Cl)c3)n2)ccn1 (stereo unspecified) |  | active: 7.08 µM |
| COc1ccc(NC(=O)CCC(=O)c2cccs2)c(OC)c1 |  | inconclusive: 1 µM [inhibitor, full curve, poor fit] |
| CC1CC(C)CN(S(=O)(=O)c2ccc(NC(=O)C3COc4ccccc4O3)cc2)C1 (stereo unspecified) |  | inconclusive: 11.2 µM [inhibitor, single point] |
| Cc1ccccc1NC(=O)c1nnn(-c2ccc3c(c2)OCCO3)c1N | inactive: -16.3% |  |
| Cc1ccccc1CCNC(=O)c1cc(C2CC2)nc2c1cnn2C(C)C |  | inconclusive: 31.6 µM [inhibitor, single point] |
| CCCCn1c(N)c(N(CCC(C)C)C(=O)COC(=O)c2cccnc2Cl)c(=O)[nH]c1=O | inactive: -0.531% |  |
| COc1c(F)c(F)c(C(=O)O)c(Nc2cc(C)cc(C)c2)c1F |  | inconclusive: 0.562 µM [inhibitor, full curve, poor fit] |
| CSc1ccc(CCNC(=O)c2cccc3c2C(=O)N(C2CCCCC2)C3)cc1 |  | inconclusive: 25.1 µM [inhibitor, single point] |
| CN(C)S(=O)(=O)c1ccc(-c2csc(N/N=C/c3ccco3)n2)cc1 |  | inconclusive: 10 µM [inhibitor, partial curve] |
| OCC[C@H]1C[C@H](O)[C@@H](O)[C@@]2(CCCc3ccccc3O2)O1 | inactive: 14.1% |  |
| CC1=C(C(=O)N(C)C)CC(CC(=O)NC2CCCC2)C(=O)N1CCCN1CCCC1=O (stereo unspecified) |  | inconclusive: 14.1 µM [inhibitor, single point] |
| O=C(O)c1ccccc1-c1ccc([N+](=O)[O-])cc1Cl | inactive: -15.1% |  |

| SMILES | activity, negative = inhibition | Potency |
| --- | --- | --- |
| CCCSc1oc(-c2ccco2)nc1S(=O)(=O)c1ccc(Br)cc1 |  | inconclusive: 35.5 µM [inhibitor, single point] |
| COCCn1ccc2c(OCC(=O)Nc3c(C)cc(C)cc3C)cccc2c1=O | inactive: 13.6% |  |
| Brc1cccc(CNc2nc3ccccc3n2CCN2CCCCC2)c1 |  | inconclusive: 35.5 µM [inhibitor, single point] |
| O=C1NC(c2ccccc2)=C(c2ccc3ccccc3n2)C(c2ccccc2)N1 (stereo unspecified) |  | inconclusive: 35.5 µM [inhibitor, single point] |
| CCOc1ccccc1N(C)S(=O)(=O)c1ccc2c(c1)N(C(C)=O)CCO2 |  | inconclusive: 35.5 µM [inhibitor, single point] |
| COc1ccccc1OCCCCN1CCN(C(c2ccccc2)c2ccccc2)CC1 |  | inconclusive: 35.5 µM [inhibitor, single point] |
| CC[C@@H](C)[C@@H]1CN([C@@H](C)CN2CCC[C@H]2CN2C(N)=NC[C@H]2CC(C)C)C(=N)N1CCc1ccc(Cl)c(Cl)c1 |  | inconclusive: 35.5 µM [inhibitor, partial curve, poor fit] |
| O=[N+]([O-])c1cccc(NC(=S)N2CCN(S(=O)(=O)c3ccccc3)CC2)c1 |  | inconclusive: 35.5 µM [inhibitor, partial curve, poor fit] |
| Cc1ccc(Nc2nc(C)nc3c2oc2ccccc23)cc1 |  | inconclusive: 25.1 µM [inhibitor, single point] |
| Cn1c(=N)n(CC(=O)c2ccc(F)cc2)c2ccccc21 |  | inconclusive: 5.62 µM [inhibitor, partial curve, poor fit] |
| CC(C)(C)OC(=O)NC1CCN(S(=O)(=O)c2ccc3c(c2)OCCO3)CC1 |  | inconclusive: 7.08 µM [inhibitor, partial curve, poor fit] |
| O=C(Nc1nccs1)c1ccc(S(=O)(=O)NCc2cccs2)cc1 |  | inconclusive: 12.6 µM [inhibitor, partial curve, poor fit] |
| Cc1ccc(Cl)cc1N1CCN(C(=O)Cc2cn(C)c3ccccc23)CC1 |  | inconclusive: 35.5 µM [inhibitor, single point] |
| COc1cccc(COC(=O)c2ccc(-c3nnn(Cc4cccc(OC)c4)n3)cc2)c1 |  | inconclusive: 4.47 µM [inhibitor, single point] |
| Cc1ccc(S(=O)(=O)N2CCC(C(=O)Nc3ccccc3N3CCCCC3)CC2)cc1 |  | inconclusive: 0.282 µM [inhibitor, full curve, poor fit] |
| C/C(=N\OC(=O)c1cccc(C(F)(F)F)c1)c1sc(-c2ccccc2)nc1C |  | inconclusive: 5.62 µM [inhibitor, single point] |
| Cc1cnccn1 |  | inconclusive: 14.1 µM [inhibitor, single point] |
| COc1ccccc1NC(=O)c1ccc2nc(C)sc2c1 | inactive: 10.6% |  |
| CCCn1c(SCC(=O)NCC)nc2sc3c(c2c1=O)CCC3 | inactive: 1.61% |  |
| Cc1ccccc1Cn1cnc2c(NS(C)(=O)=O)c(C)c(C)cc21 | inactive: -6.45% |  |
